Data published in PubChem BioAssay AID1634 (National Center for Advancing Translational Sciences (NCATS), 2009).
In all, about 260,000 compounds went through this assay and about 150 (0.058%) were called active. The inconclusive results got no clear call from the source; some entries with a clear call stand among them for comparison. Calls follow the shape of the dose curve; as a rule, active = well fitted inhibition curve with a large enough effect; inconclusive = small, poorly fitted or top-dose-only effect; inactive = no such curve, though single readings can be large or run the other way. Potencies of inconclusive entries are left out as doubtful fits.
Also: nearly all actives have a fitted effect of over 60% in size.
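For activity change, negative = inhibition in this document: plate controls were uninhibited enzyme wells for no effect and no-enzyme wells for full effect.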
Potency is read from the fitted curve at half-maximal effect; tags tell the direction and shape of the fitted curve.

The compounds below were run against Pyruvate kinase PKM (Homo sapiens) (UniProt P14618) (assay: qHTS Assay for Inhibitors of Human Muscle isoform 2 Pyruvate Kinase). Conditions: purified PKM2, ATP generation, Kinase-Glo luminescence; series mostly up to 57.5 µM; activity change, negative = inhibition: at the top concentration.
UniProt P14618, sequence (P14618 whole entry, looked up, canonical isoform): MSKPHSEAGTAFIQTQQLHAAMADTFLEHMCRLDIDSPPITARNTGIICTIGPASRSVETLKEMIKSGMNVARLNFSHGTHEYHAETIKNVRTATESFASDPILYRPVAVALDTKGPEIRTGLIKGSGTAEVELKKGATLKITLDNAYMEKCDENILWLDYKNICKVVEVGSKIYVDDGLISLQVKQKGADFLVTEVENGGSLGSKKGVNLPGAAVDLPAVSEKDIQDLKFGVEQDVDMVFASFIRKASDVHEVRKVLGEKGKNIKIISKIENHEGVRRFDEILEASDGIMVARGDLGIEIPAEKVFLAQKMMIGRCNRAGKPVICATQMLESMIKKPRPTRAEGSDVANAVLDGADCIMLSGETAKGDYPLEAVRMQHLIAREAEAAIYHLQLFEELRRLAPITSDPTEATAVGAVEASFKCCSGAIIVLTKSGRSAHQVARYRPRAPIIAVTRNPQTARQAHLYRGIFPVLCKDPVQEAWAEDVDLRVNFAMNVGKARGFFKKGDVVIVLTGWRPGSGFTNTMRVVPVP
Protocol: NIH Chemical Genomics Center [NCGC] Matthew G. Vander Heiden, M.D., Ph.D. [Harvard Medical School, 77 Avenue Louis Pasteur, Boston, MA 02115] […] ATP generation was detected in a coupled reaction by luciferase-mediated luminescence, an ATP-dependent process. […] The enzyme was assayed at an intermediate level of activity to screen for both inhibitors and activators.
NCGC Assay Protocol Summary: Three uL of substrate mix (at r.t.) in assay buffer (50 mM Imidazole pH7.2, 50 mM KCl, 7 mM MgCl2, 0.01% Tween 20, 0.05% BSA) was dispensed into white solid bottom 1,536 well microtiter plates so that the final concentrations of substrates in the assay were 0.1 mM ADP and 0.5 mM PEP. 23 nL of compound were delivered by a pin tool and 1 uL of enzyme mix in assay buffer (4 degree Celsius) was added. Plates were incubated at room temperature for 1 hour. Two uL of detection mix (Kinase-Glo, Promega; at 4 degree Celsius protected from light) was added and luminescence read by a ViewLux (Perkin Elmer) at 5 second exposure/plate. Data were normalized to the uninhibited and AC100 inhibition (no enzyme). To monitor activation, the first column contained a titration of the activator, NCGC00031955-01 (16-point 1:2 dilutions in duplicate starting at 57 uM) and the first 16 rows of column 4 contained 57 uM of NCGC00031955-01.
`CSc1c(-c2ccccn2)c(N)nn1C(=O)C1CCC1` was tested, and the “activity change, negative = inhibition” value was inactive: 57.1%. In the case of `COc1ccc(-c2cc(C(=O)N3CCN(c4ccccn4)CC3)c3ccccc3n2)cc1`, the Potency is reported as inconclusive [falling, single point]. With `CC(=O)C1=C(O)C(=O)N(Cc2cccnc2)C1c1ccc(O)cc1` (centres undefined) the “activity change, negative = inhibition” value was inactive: 61.4%. With `Cc1ncoc1C(=O)Nc1ccc2c(c1)OCCO2` the Potency was inconclusive [falling, partial curve]. For `N/C(=N\N=C\c1ccc2c(c1)OCO2)c1nonc1N`, the Potency was inconclusive [falling, partial curve]. With `Cc1ccc(S(=O)(=O)CCSc2nc(C)cc(C(F)(F)F)c2C#N)cc1` the “activity change, negative = inhibition” value was inactive: -0.21%. `C=CCNC(=S)NS(=O)(=O)c1cccs1` was tested, and the Potency was inconclusive [falling, single point]. For `S=C1NC(c2ccccc2)N2C(=S)NC(c3ccccc3)N12` (centres undefined), the Potency was inconclusive [falling, single point]. For `N/C(=N\OC(=O)c1ccco1)c1ccccc1`, the Potency was inconclusive [falling, partial curve, poor fit]. In the case of `CCOC(=O)c1c(-c2ccc(C)o2)csc1NC(=S)NC(=O)N(C)C`, the “activity change, negative = inhibition” value is reported as inactive: 44.8%. For `O=C(Nc1sc2c(c1C(=O)O)CCC2)c1ccco1`, the Potency was inconclusive [falling, single point]. `Cc1ccc(SCC(=O)NN2C(=O)c3ccccc3C2=O)cc1` was tested, and the Potency was inconclusive [falling, single point]. With `COc1ccccc1C(=O)NNC(=O)c1cccc(F)c1` the Potency was inconclusive [falling, single point]. In the case of `O=C(OCc1cc(=O)n2c(n1)sc1ccccc12)c1ccc(O)cc1O`, the Potency is reported as inconclusive [falling, single point]. With `Cc1ccsc1C(=O)OCc1csc(-c2ccccc2)n1` the Potency was inconclusive [falling, partial curve]. In the case of `O=C(c1ccc(Cn2cc(Cl)c([N+](=O)[O-])n2)cc1)N1CCN(Cc2ccccc2)CC1`, the “activity change, negative = inhibition” value is reported as inactive: 38.1%. With `CN(C(=O)c1ccc(NC(=O)c2ccco2)cc1)c1ccccc1` the Potency was inconclusive [falling, single point]. In the case of `Cc1nnc(NC(=O)c2csc3c2CCC(C)C3)s1` (centres undefined), the “activity change, negative = inhibition” value is reported as inactive: 41.4%. For `CCN(CC)S(=O)(=O)c1ccc(O)c(C(=O)OCC(=O)Nc2ccc(OC(F)(F)F)cc2)c1`, the Potency was inconclusive [falling, single point]. For `Cc1ccc(NS(=O)(=O)c2ccc3c(c2)CC(=O)N3)cc1C`, the “activity change, negative = inhibition” value was inactive: 64.8%. For `COc1ccccc1/C=C/C(=O)NC(=S)N1CCOCC1`, the Potency was inconclusive [falling, partial curve]. `CCOC(=O)CC(=O)Nc1ccsc1C(N)=O` was tested, and the “activity change, negative = inhibition” value was inactive: 36.2%. In the case of `CCOc1ccc(NC(c2ccccn2)c2oc(CO)cc(=O)c2O)cc1` (centres undefined), the “activity change, negative = inhibition” value is reported as inactive: 41.5%. `Cc1ccc(N2C(=O)C3C4C=CC(CNC(=S)N5CCN(c6cccc(C)c6)C(C)C5)(O4)C3C2=O)cc1` (centres undefined) was tested, and the “activity change, negative = inhibition” value was inactive: 37.5%. For `NCc1ccc2[nH]c(=O)[nH]c2c1`, the Potency was inconclusive [falling, single point]. In the case of `NC(=O)c1sc(=S)n2c1[nH]c(=O)c1sccc12`, the Potency is reported as inconclusive [falling, partial curve]. For `C/C(=N\NC(=O)c1cc(C(C)C)[nH]n1)c1ccco1`, the Potency was inconclusive [falling, single point]. For `CC1=C(C#N)C(=O)N(C2CCS(=O)(=O)C2)C(=O)/C1=C\c1ccc(C)o1` (centres undefined), the “activity change, negative = inhibition” value was inactive: 49.4%. `COc1ccccc1/C=N/Nc1nccnc1Cl` was tested, and the Potency was inconclusive [falling, partial curve]. `Cc1ccc(-c2nc3ccccc3n2C)o1` was tested, and the Potency was active: 12.6 µM. In the case of `COc1cc(/C=C(\C#N)C(=O)Nc2ccc3c(c2)OCCO3)ccc1O`, the “activity change, negative = inhibition” value is reported as inactive: 16%. For `CC[C@@H](C)[C@H](NC(=O)OC(C)(C)C)c1nnc(S(=O)(=O)Cc2cc(C)ccc2C)o1`, the “activity change, negative = inhibition” value was inactive: 68.5%. For `CCn1cnc2cc(NCc3nc4ccccc4n3C)ccc21`, the Potency was inconclusive [falling, partial curve]. For `Oc1c(/C=N/c2ccccn2)sc2ccccc12`, the Potency was inconclusive [falling, partial curve]. For `COc1ccc(NC(=O)CN(C)C(=O)c2oc3ccccc3c2C)cc1`, the Potency was inconclusive [falling, single point]. `CCCc1c(C)nn(-c2ncccc2[N+](=O)[O-])c1C` was tested, and the Potency was inconclusive [falling, single point]. For `CC(/C=N/NC(=O)CSc1nnc(SCc2ccccc2)s1)=C\c1ccco1`, the “activity change, negative = inhibition” value was inactive: 32%. For `O=C(Nc1ccc(Cl)cn1)c1cccc(F)c1`, the Potency was inconclusive [falling, partial curve]. With `N/C(=N\OC(=O)c1ccc(Cl)cc1)c1ccccn1` the Potency was active: 7.08 µM. In the case of `Cc1ccc2c(c1)COc1c3ccc(C(=O)O)cc3nn1-2`, the Potency is reported as inconclusive [falling, single point]. In the case of `COC(=O)C1CCN(C(=O)c2cc(=O)[nH]c3ccccc23)CC1`, the Potency is reported as inconclusive [falling, single point]. `Cc1ccc(NC2=C(CC(=O)O)C(c3ccccc3)N(c3ccc(C)cc3)C2=O)cc1` (centres undefined) was tested, and the “activity change, negative = inhibition” value was inactive: 35.4%. With `O=c1c2ccccc2sn1-c1nccs1` the Potency was inconclusive [falling, single point]. For `CC(C)CCNC(=O)CCCc1ccccc1`, the Potency was inconclusive [falling, single point]. With `O=C(/C=C\Nc1ccc2c(c1)OCO2)c1ccccn1` the Potency was inconclusive [falling, partial curve]. In the case of `O=C(CCCc1cccs1)N1CCN(S(=O)(=O)c2ccccc2Br)CC1`, the “activity change, negative = inhibition” value is reported as inactive: 81.7%. With `CC1=C(C#N)C(=O)NC(=O)/C1=C\c1ccc(-c2cc(C)c(C)cc2[N+](=O)[O-])o1` the “activity change, negative = inhibition” value was inactive: 41.9%. In the case of `S=C(Nc1ccccn1)c1ccccn1`, the Potency is reported as inconclusive [falling, partial curve]. For `Cc1cccc(NC(=S)N(CCN2CCOCC2)Cc2cc3cc4c(cc3[nH]c2=O)OCCO4)c1`, the “activity change, negative = inhibition” value was inactive: 32.1%. `O=C1CCC(=O)N1c1ccc(-c2nc3ccccc3s2)cc1` was tested, and the Potency was inconclusive [falling, partial curve]. `O=C(/C=C/c1ccccc1[N+](=O)[O-])Nc1cccnc1` was tested, and the “activity change, negative = inhibition” value was inactive: 46.7%. `COc1ccc(-c2ccc(SCC(=O)N3CCOCC3)nn2)cc1OC` was tested, and the Potency was inconclusive [falling, single point]. With `Cc1cc(C(=O)N/N=C/c2ccc3c(c2)OCO3)c(C)o1` the Potency was inconclusive [falling, single point]. For `COC(=O)[C@@]1(Cc2ccc(OC)cc2)[C@H]2c3cc(C(=O)N(C)C)n(Cc4ccc(C)o4)c3C[C@H]2CN1C(=O)c1ccccc1`, the “activity change, negative = inhibition” value was inactive: 89.2%. For `CCOc1ccccc1N1CSC2=C(C#N)C(c3c(OC)ccc4ccccc34)CC(=O)N2C1` (centres undefined), the Potency was inconclusive [falling, single point]. For `O=C(O)c1ccc(CSc2nc3ccc(NC(=O)c4ccccc4C(=O)O)cc3s2)cc1`, the Potency was inconclusive [falling, single point]. For `CC(C)Oc1cccc(C(=O)C2CCCN(C(=O)c3ccsc3)C2)c1` (centres undefined), the Potency was inconclusive [falling, single point]. `COc1ccc(-c2cc(C(=O)Nc3cc(S(=O)(=O)N4CCOCC4)ccc3N3CCOCC3)c3ccccc3n2)cc1` was tested, and the Potency was inconclusive [falling, single point]. For `Oc1ccc(O)c(Cc2nc3ccccc3[nH]2)c1`, the Potency was inconclusive [falling, single point]. With `c1ccc(-c2noc(-c3ccc4c(c3)OCO4)n2)cc1` the Potency was inconclusive [falling, partial curve]. For `Cc1cccc2c1c1ccc3c(c1n2C)C(=O)C=CC3=O`, the “activity change, negative = inhibition” value was inactive: 29.5%. `COc1cc(CO)cc(Br)c1OCC(=O)Nc1cccc2ccccc12` was tested, and the Potency was inconclusive [falling, single point]. In the case of `CCOc1cc(CNc2ccc(N(C)C)cc2)cc(Br)c1OCC(=O)NC(C)(C)C`, the Potency is reported as inconclusive [falling, single point]. `COC(=O)c1cnn(C(=O)c2cc(OC)ccc2Br)c1N` was tested, and the Potency was inconclusive [falling, partial curve, poor fit]. In the case of `O=C(/C=C/Nc1ccc(F)cc1F)c1cccs1`, the Potency is reported as inconclusive [falling, full curve, poor fit]. In the case of `COc1ccc(N2CCN(C(C)C(=O)Nc3nnc(C)s3)CC2)cc1` (centres undefined), the Potency is reported as inconclusive [falling, partial curve]. `COC(=O)CN1C(=O)N/C(=C/c2cc3c(cc2OC)OCO3)C1=O` was tested, and the Potency was inconclusive [falling, partial curve]. `Cc1nonc1C(=O)N/N=C/c1cccc(O)c1` was tested, and the Potency was inconclusive [falling, partial curve]. With `COc1ccc(OCC(=O)Nc2nccs2)cc1` the Potency was inconclusive [falling, partial curve]. With `Cn1c(=O)c2c(SCC(=O)Nc3nccs3)nc(C3CC3)nc2n(C)c1=O` the “activity change, negative = inhibition” value was inactive: 37%. In the case of `CC1CCN(c2nnc(N3CCC(C)CC3)c3ccccc23)CC1`, the Potency is reported as inconclusive [falling, single point]. With `COc1ccc(OC)c(-n2c(Cn3c(-c4ccccn4)nc4ccccc43)n[nH]c2=S)c1` the “activity change, negative = inhibition” value was inactive: 31.4%. `CN(c1ccc2nc3ccccc3c(=O)n2n1)C1CCCCC1` was tested, and the Potency was inconclusive [falling, partial curve]. For `Cc1n[nH]c(=S)n(NC(=O)CC(=O)Nn2c(=S)[nH]nc(C)c2=O)c1=O`, the Potency was inconclusive [falling, single point].
